Drawing on article PMC5892938, this text covers binding signal (log2 fold change) for 47 sequences.

This is one part of the list. At the low end of the ranking the order means little.

The test addresses GST-SBP-SLBP (stem-loop binding protein) (UniProt Q14493). The experiment in a line: targeted RNA Bind-n-Seq.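 Note: DESeq read counts versus GST-SBP nonspecific binding control pulldown.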 The following applies: RBNS binding buffer: 25 mM Tris pH 7.5, 150 mM KCl, 3 mM MgCl2, 0.1% Tween, 0.5 mg/mL BSA, 1 mM DTT; 27 nM protein, 750 pM RNA pool; temperature not stated; high values mean tight binding.
In the case of “GGUCACGUCUCAAUCAACUCAGUCCCCAGGGAAACCCCUGGCAUUUUCAACAGCUCGCAGUCAAG”, the binding signal (log2 fold change) was -0.549.
“GGUCACGUCUCAAUCAACUCUUUCCCAGGAGUUUUCUCCUGUUAAUUCAACAGCUCGCAGUCAAG”: the binding signal (log2 fold change) was -0.189.
As for “GGUCACGUCUCAAUCAACUCAUCAGAGGGGGGGAAAACCCCUUUACCCUCCCAUUCAACAGCUCGCAGUCAAG”, the binding signal (log2 fold change) came to 0.112.
To “GGUCACGUCUCAAUCAACUCAGUCUCCAGGGAAAACCCUGGCUUAUUCAACAGCUCGCAGUCAAG” belongs -0.0825.
To “GGUCACGUCUCAAUCAACUCAAUUCCAGGAGUUUCCUCCUGUUUAUUCAACAGCUCGCAGUCAAG” belongs -0.0688; to “GGUCACGUCUCAAUCAACUCUUAAGAGGGGGGGAAAACCCCUUUACCCUCACACUCAACAGCUCGCAGUCAAG”, -0.0851; to “GGUCACGUCUCAAUCAACUCAACUUCCAGGGAAAACCCUGGUUAUUUCAACAGCUCGCAGUCAAG”, 0.173.
To “GGUCACGUCUCAAUCAACUCAUCGCCAGGAGUUUACUCCUGUUAUUUCAACAGCUCGCAGUCAAG” belongs -0.237; to “GGUCACGUCUCAAUCAACUCAUCCCCAGGAGUUUACUCCUGUUUUCUCAACAGCUCGCAGUCAAG”, 0.157.
With “GGUCACGUCUCAAUCAACUCAACUUCCAGGGAAAGCCCUGGUUAAUUCAACAGCUCGCAGUCAAG”, the binding signal (log2 fold change) came to 0.0708.
To “GGUCACGUCUCAAUCAACUCUUUCCCAGGAGUUUCCUCCUGCUUAUUCAACAGCUCGCAGUCAAG” belongs -0.039; to “GGUCACGUCUCAAUCAACUCUCCCGAGGGGGGGAAAACCCCUUUACCCUCCACAUCAACAGCUCGCAGUCAAG”, 0.213.
For the sequence “GGUCACGUCUCAAUCAACUCAUUCCCAGGAGUUUGCUCCUGCUAUCUCAACAGCUCGCAGUCAAG”, the binding signal (log2 fold change) is 0.279.
For the sequence “GGUCACGUCUCAAUCAACUCUUCGUCAGGAGUUUCCUCCUGUUUUCUCAACAGCUCGCAGUCAAG”, the binding signal (log2 fold change) is -0.171.
The value for “GGUCACGUCUCAAUCAACUCUUCCUCAGGAGUUUCCUCCUGUUAUUUCAACAGCUCGCAGUCAAG” was 0.137.
The value for “GGUCACGUCUCAAUCAACUCUUCGCCCAGGGAAAGCCCUGGUUUUUUCAACAGCUCGCAGUCAAG” was -0.372; that for “GGUCACGUCUCAAUCAACUCUUUUUCCAGGGAAAUCCCUGGUAAUCUCAACAGCUCGCAGUCAAG” was 0.0389; that for “GGUCACGUCUCAAUCAACUCUUCUUCCAGGGAAAUCCCUGGCAUACUCAACAGCUCGCAGUCAAG” was 0.399.
“GGUCACGUCUCAAUCAACUCUCCGGAGGGGGGGAAAACCCCUUUACCCUCAUUCUCAACAGCUCGCAGUCAAG”: the binding signal (log2 fold change) is -0.16.
Regarding “GGUCACGUCUCAAUCAACUCCCCAGAGGGGGGGAAAACCCCUUUGCCCUCAAAAUCAACAGCUCGCAGUCAAG”, the binding signal (log2 fold change) was 0.119.
The value for “GGUCACGUCUCAAUCAACUCCCUAGAGGGGGGGAAAACCCCUUUGCCCUCGUAUUCAACAGCUCGCAGUCAAG” was -0.0734.
To “GGUCACGUCUCAAUCAACUCUUUUUCCAGGGAAAUCCCUGGCUUAUUCAACAGCUCGCAGUCAAG” belongs 0.031; to “GGUCACGUCUCAAUCAACUCUAUCUCAGGAGUUUUCUCCUGUUAUCUCAACAGCUCGCAGUCAAG”, 0.132; to “GGUCACGUCUCAAUCAACUCUUUCCCAGGAGUUUUCUCCUGUUAUUUCAACAGCUCGCAGUCAAG”, 0.0605.
The value for “GGUCACGUCUCAAUCAACUCAUCCCCCAGGGAAAACCCUGGCUAUUUCAACAGCUCGCAGUCAAG” was 0.2; that for “GGUCACGUCUCAAUCAACUCAUCCUCAGGAGUUUGCUCCUGCAUAUUCAACAGCUCGCAGUCAAG” was 0.313.
On to “GGUCACGUCUCAAUCAACUCUUUUUCCAGGGAAAACCCUGGCAAUGUCAACAGCUCGCAGUCAAG”, for which the binding signal (log2 fold change) worked out at 0.0278.
To “GGUCACGUCUCAAUCAACUCAGUCUCAGGAGUUUCCUCCUGCAAUCUCAACAGCUCGCAGUCAAG” belongs 0.0673; to “GGUCACGUCUCAAUCAACUCAAUUUCCAGGGAAAGCCCUGGUAUUCUCAACAGCUCGCAGUCAAG”, -0.0789; to “GGUCACGUCUCAAUCAACUCUCAAGAGGGGGGGAAAACCCCUUUACCCUCCACCUCAACAGCUCGCAGUCAAG”, 0.21.
On to “GGUCACGUCUCAAUCAACUCAUCCUCAGGAGUUUACUCCUGUUUACUCAACAGCUCGCAGUCAAG”, for which the binding signal (log2 fold change) is -0.0441.
On to “GGUCACGUCUCAAUCAACUCUAUCCCCAGGGAAAGCCCUGGCUAACUCAACAGCUCGCAGUCAAG”, for which the binding signal (log2 fold change) was -0.155.
Take “GGUCACGUCUCAAUCAACUCAACGGAGGGGGGGAAAACCCCUUUACCCUCAUCUUCAACAGCUCGCAGUCAAG”: the binding signal (log2 fold change) is -0.0741.
To “GGUCACGUCUCAAUCAACUCUAUUUCCAGGGAAAGCCCUGGUUUUCUCAACAGCUCGCAGUCAAG” belongs -0.122; to “GGUCACGUCUCAAUCAACUCCUCAGAGGGGGGGAAAACCCCUUUACCCUCCACUUCAACAGCUCGCAGUCAAG”, -0.154.
As to “GGUCACGUCUCAAUCAACUCACAAGAGGGGGGGAAAACCCCUUUGCCCUCAUAUUCAACAGCUCGCAGUCAAG”, the binding signal (log2 fold change) stood at 0.259.
Regarding “GGUCACGUCUCAAUCAACUCUUCUCCAGGAGUUUUCUCCUGUUUUCUCAACAGCUCGCAGUCAAG”, the binding signal (log2 fold change) amounted to 0.174.
To “GGUCACGUCUCAAUCAACUCAACUCCAGGAGUUUCCUCCUGCAAACUCAACAGCUCGCAGUCAAG” belongs -0.00479; to “GGUCACGUCUCAAUCAACUCUUUUCCCAGGGAAACCCCUGGUUAUGUCAACAGCUCGCAGUCAAG”, 0.0043; to “GGUCACGUCUCAAUCAACUCAGUCUCCAGGGAAAGCCCUGGCAUUUUCAACAGCUCGCAGUCAAG”, -0.0389.
“GGUCACGUCUCAAUCAACUCUUUCUCAGGAGUUUUCUCCUGCUUACUCAACAGCUCGCAGUCAAG”: the binding signal (log2 fold change) was 0.0264.
For “GGUCACGUCUCAAUCAACUCUCUAGAGGGGGGGAAAACCCCUUUGCCCUCCACAUCAACAGCUCGCAGUCAAG”, the binding signal (log2 fold change) is 0.07.
“GGUCACGUCUCAAUCAACUCAUCUUCCAGGGAAAACCCUGGCUUUUUCAACAGCUCGCAGUCAAG”: the binding signal (log2 fold change) is -0.0327.
To “GGUCACGUCUCAAUCAACUCUUCCUCAGGAGUUUUCUCCUGCUUUCUCAACAGCUCGCAGUCAAG” belongs -0.0213.
As for “GGUCACGUCUCAAUCAACUCUAUUUCCAGGGAAAGCCCUGGCAUUUUCAACAGCUCGCAGUCAAG”, the binding signal (log2 fold change) came to 0.0777.
To “GGUCACGUCUCAAUCAACUCUACUUCAGGAGUUUUCUCCUGCAAUGUCAACAGCUCGCAGUCAAG” belongs 0.0913.
Regarding “GGUCACGUCUCAAUCAACUCUUUCUCCAGGGAAAACCCUGGUUUACUCAACAGCUCGCAGUCAAG”, the binding signal (log2 fold change) amounted to 0.16.
